In the supplement of paper PMC4466236:
Over roughly 33,000 sequences, “E-score (dimensionless, -0.5 to 0.5)” has its median near -0.058; the highest 2% begin near 0.35. Some of the results follow.

System: MvaT
Assay: PBM 8-mer E-score (mean of HK and ME arrays) (E-score (dimensionless, -0.5 to 0.5)); higher = stronger relative binding preference; most listed sequences are background and not binding sites
Method: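 Protein binding microarray: GST-tagged full-length MvaT (P. aeruginosa PAO1) bound to two universal double-stranded 60-mer arrays (ME and HK), each with a constant 25-mer primer and a variable 35-mer region covering all 8-mers. The 8-mer E-score (rank-based, range -0.5 to 0.5, >0.45 = specific binding) is the mean of the two arrays.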

Sequence	PBM 8-mer E-score
CACTCAGG	-0.246
AACCCACC	0.00233
GACACCGA	-0.0868
AGCAGCTA	-0.157
GTCGATCA	-0.174
GGTTTCAA	0.0105
GCCCGGTA	-0.246
ACTTTCTC	0.00806
CGGACTGC	-0.151
AATGCATG	-0.00242
ATTGAGCG	-0.0447
CGTAAATA	0.236
ATTTTCCG	0.181
ATTCGTTA	0.231
AATCTTGA	0.0713
GCCCCCTA	-0.3
AGATCGAG	-0.129
GCTGCCCC	-0.201
AGGCATGG	-0.181
ACCCATAA	0.216
CAGTTAAC	0.221
GGGGTCAA	-0.266
AAACGAGA	-0.0683
AATGCTTA	0.137
CGCCCGCA	-0.167

Sequence	PBM 8-mer E-score
CACGCTAA	0.000335
AGTGCCTG	-0.0207
AGCATGCC	-0.261
GGAAGTCA	-0.0511
GCCTTAGC	-0.264
GTGGTCTA	-0.0936
GATGTCCC	-0.161
ATTTTCGA	0.0907
ACGATGCT	-0.0713
AACTAGAA	0.251
GTCAGGAC	-0.053
CCTAACCC	-0.192
CTAGTAGA	-0.0255
CACGGCCC	-0.26
CTTGGGAA	-0.084
AGCGCCCG	-0.268
ACACCGTC	-0.119
CAGTTGAC	0.0902
CCGCGCCA	-0.218
GCGTTGAA	0.129
AATAGAAC	0.143
TGAACTCA	-0.0486
GCCCTGAA	0.0414
AATCGCTA	0.0672
CCTAAAGC	-0.268

Sequence	PBM 8-mer E-score
ATGAAATA	0.228
GGGTAGAA	-0.00939
ACCCAACG	-0.0289
ATCCATAC	0.0888
GGGAGTAC	-0.145
CTTCAACC	-0.107
GCAGGCCC	-0.325
ATATGGAC	0.108
CCCATTCC	-0.283
AAACTCCC	-0.103
AAGATTAG	0.179
CTTTAACA	0.128
GTTAATTA	0.415
AGAGTGAT	0.0601
CGCGGCGA	-0.271
AACGGACG	-0.165
ATGTTCTC	0.093
CTACTTTC	-0.0258
AGCCGGGA	-0.224
ATGTCAGC	-0.039
ACGGTTCT	-0.104
GTGTGCGA	0.0377
CGGTCGAC	-0.295
GTTGAGGA	-0.181
AAAATAAA	0.409

Sequence	PBM 8-mer E-score
CCGCATTA	-0.0627
ATACCCTC	-0.12
ATCGAGTA	0.00286
AGTTATGA	0.319
CTTTGTGC	-0.143
TCCACTCA	-0.0806
CGGCGAAC	-0.132
ATTCAAAA	0.252
TGATGCCA	-0.236
CGGTTGTA	0.0957
AAGGGTTG	-0.1
ACTAGTCA	0.0987
CTCGCATA	0.0368
ATACAGAT	0.0944
AAATATCA	0.304
CCCGATAC	-0.162
GTGCCAAA	-0.102
AAGTTACC	0.149
CCGGCCCA	-0.132
CTACGAAC	-0.141
TCTGAACA	0.0206
GAAACGTC	-0.204
ATGGTCTA	-0.147
CCAATAGG	-0.195
CTATTAGA	0.208

Sequence	PBM 8-mer E-score
CGGGGTGC	-0.246
AAACTGCT	0.0621
CCTGCTTA	-0.0256
CTGCTGTA	0.0204
GAGATGTA	0.14
GAAGAAGA	-0.164
ATCCCCTC	-0.255
CGTACGAA	0.0643
CTTGTTAA	0.232
AACTGCCT	-0.0484
AAACTGTC	0.0337
CTCTTCAA	-0.0688
ACGAACTA	0.146
TCGGTCCA	-0.0143
GTACTGTA	0.157
ATGGCGAC	-0.142
ACTAATAG	0.199
AAACTGAC	0.083
GATTTTCC	0.0494
AAACACAG	0.108
CCCGTTAC	-0.113
TCGTCAAA	0.0365
AAGCTCCG	-0.128
AGCGAAGA	-0.0675
CTACGGTA	0.0649

Sequence	PBM 8-mer E-score
AATTTGGA	0.0151
CAAAGTAA	0.216
ACTTCAAA	0.251
ACCCTTCG	-0.302
CCATCCGG	-0.306
CGATATAA	0.395
AGAATTGG	-0.0665
CCGGAAAA	-0.0324
ACCAATGC	-0.226
GTAGGCAC	-0.224
CTACACAG	-0.0757
AACGATTC	-0.111
ACTTTCGG	0.0277
CAAGTCGG	-0.0948
CCGTAACA	-0.0477
CGGCTGGC	-0.234
AGCATTTG	0.00649
AAAGAAGG	-0.154
GCGAAAGC	-0.161
AGTACAGG	0.0418
ATAATGTC	0.337
AATCAAGT	0.137
AACTATGT	0.258
ACTAGAAT	0.144
CCGGGGAG	-0.245

Sequence	PBM 8-mer E-score
ACCAGGGA	-0.192
ACTTCCAA	0.193
ATGCACAT	0.11
ATTTGTCA	0.185
ATGTAAGA	0.175
ACACGACG	-0.192
GTGACTCA	-0.217
ACCACCTG	-0.22
GCAGTCAC	-0.0976
CAAACCGC	-0.204
ACGCGCAA	0.228
AAGGGCTC	-0.239
CACTCATA	0.0409
CGATGCCA	-0.192
AATTGTTG	0.232
GATAAAGA	0.271
ACAGATTG	-0.0531
CGACCGGA	-0.15
GTGGAAGA	-0.0251
CTAGGTGC	-0.0635
CGGCCGAC	-0.135
ACAGAGAA	0.0708
ACTGGCGG	0.0267
GTAAGTCA	0.125
TATTGAGA	0.224

Sequence	PBM 8-mer E-score
CCTTTAAG	-0.0641
ACCGGCGG	-0.0906
ACGCCCGA	-0.00671
CGAAAAAG	0.0951
GCATCAAC	-0.0551
AAAATTTA	0.311
CCTGTAAG	-0.0994
ACTTCCCA	-0.000597
CCGGATAG	-0.131
AATGCAGC	0.0155
GGGGCATA	-0.105
ACCAAAAG	-0.0953
AGGCTGCG	-0.189
CCTGGGCC	-0.238
TAATTTCA	0.323
ACCGAGTG	-0.0732
TCATAAGA	0.0931
CGCGGTAC	-0.165
TACATCCA	0.203
AGTATTCA	0.203
TCATCCCA	-0.103
GACTCTAA	0.049
CCAGTAAA	0.0684
TAGTTGGA	0.0717
TCGGCTAA	0.00806

Sequence	PBM 8-mer E-score
AGACGGTA	-0.203
AGAATGAA	0.0569
ACTCGAGT	-0.14
CACCCAGC	-0.0519
GCTCAGAC	-0.291
AACCCGTT	0.0662
AATTGGGG	0.0515
AGGCAGCC	-0.258
AAAACGGG	-0.0606
CGCCTCCC	-0.293
GAAGCTCA	-0.168
CAAGAGCA	-0.156
ATCCACCA	-0.0254
CCACGCAA	-0.137
CTTGCTTA	0.11
ACGCGCAC	-0.00656
GAAGAGCA	-0.08
AACACATA	0.262
GTGCCTGA	-0.013
TCAACAAA	0.271
TACACCGA	-0.00705
ATATGCCA	0.181
AACCCGGT	-0.215
GAAAAGGC	-0.0698
AAACGATG	-0.00663

Sequence	PBM 8-mer E-score
TAGCTGCA	-0.0239
ATATGGGC	0.0167
ACAACGGT	-0.14
ACACGGTA	-0.0803
AAAGAGAT	0.143
TACAGATA	0.184
AATCCTGC	-0.0553
CCACCGAC	-0.163
ATAGGGGA	-0.161
GGCCGTGA	-0.233
GCAGTCGC	-0.263
AGGTACCC	-0.316
CTTATAGC	0.229
CATCCAAC	0.071
ATGAGGCA	-0.149
GACGTTGC	-0.0956
ATATGCGC	0.206
ATATCATA	0.254
AACCCGGG	-0.174
GAGGGTGA	-0.0963
TAGCTAGA	-0.0721
AAGTACGG	0.0543
CATAGTAG	0.109
CTATGAGC	-0.1
AAGTCCCC	-0.191

Sequence	PBM 8-mer E-score
CAATGCTC	-0.203
ATTGTAAG	0.245
CAAACTTG	0.203
CGGCACCG	-0.142
AATGCCGC	-0.0147
CACGACTC	-0.0476
GAACAACC	-0.0763
CAGAGGGC	-0.303
ACTACAGG	-0.159
ATGACGAA	0.0517
CTACCAGC	-0.185
ACTCGGAC	-0.21
AGAAGCGG	-0.204
CCGTGGGC	-0.244
AGCCAGTC	-0.178
AGACTGCC	-0.192
CACCACCG	-0.0443
ACTAAGCT	0.00751
AGTTTGAG	0.102
AGTATGAA	0.172
CGAACTCA	-0.0442
GCAGCCAC	-0.276
ATACTCCA	0.188
ACCCTGTG	-0.0652
CCCGGTTA	0.00633

Sequence	PBM 8-mer E-score
AACTCCAT	-0.00507
GCGGTTCC	-0.178
AAACGCGT	0.083
CAATCTCA	-0.0118
CGGCCGCA	-0.237
AAACCAGT	-0.00288
ACGGAATC	0.00389
AAAAGTCG	0.177
GTGATTAA	0.28
GATTCTAC	-0.0548
GCACGACA	-0.187
TCGAGAGA	-0.0572
AACTGGCG	-0.101
CGAGGGAC	-0.263
CTACCTAG	-0.194
AAGGTAAT	0.102
CTAAGCCC	-0.151
GATGTCGA	-0.0845
CTGCCCTA	-0.117
AAGAATGG	0.0719
CGATCGTA	0.0551
AATATTTC	0.404
AGTTTGCG	0.0821
TAGGAGCA	-0.115
CAGTTAGA	0.077

Sequence	PBM 8-mer E-score
CGAGACCA	-0.228
CGTCACAA	0.201
ATTCGTAA	0.204
GATACCGC	-0.109
ATCATGTA	0.117
ATGTCATG	-0.0224
GCAAGCAC	-0.248
TATACACA	0.262
GCCTGAGA	-0.214
AAGAACTC	-0.0276
CATGGGCG	-0.224
CTAAGGTC	-0.164
GGACGAGA	-0.216
ATACGCTG	-0.0925
ATTCTATA	0.229
TCCTATCA	-0.0448
GGTAGCGA	-0.246
CTCGTTCC	-0.186
ACAAAATG	0.0821
CTACAAGC	-0.133
GATTAGGC	-0.112
ACGATTAC	-0.0273
CATGGCCA	-0.276
CCAGAGCA	-0.188
CCTTAACC	-0.0489

Sequence	PBM 8-mer E-score
CGGATACA	0.0887
AATTGACG	0.224
GTTACGCA	0.018
CCGCATCA	-0.115
CAGTGGAA	-0.0449
AGATCCTG	-0.266
CAGTACCA	-0.0173
CTTCCTCA	-0.154
AATTGATA	0.339
ATGACACA	0.0646
AGCGGGAA	-0.185
ATGATCGC	-0.037
CCCCTCTC	-0.119
AAGGTGTA	-0.0643
CACTGCCA	-0.183
GGGGGACC	-0.398
CGATCTAA	-0.0538
AACCCAGT	-0.0508
AAAGCATT	-0.00799
